Source: the supplement of paper PMC10369915
The other results are listed elsewhere or left out. Rule as the data show it: active = 3.2 or more and inactive = the rest. The signal is at background level for most entries.

What was measured:
Assay in all cases: enrichment score (SH2-bound / input frequency) (ratio); bacterial display of known human phosphotyrosine sites (pTyr-Var adds point mutants) read by sequencing; higher = stronger binding; tyrosines were phosphorylated by kinases first
Conditions in all cases: peptide library: pTyr-Var
SHP2 C-SH2 domain E139D = target: SHP2 C-SH2 domain E139D
[1] = target: SHP2 C-SH2 domain wild-type
SHP2 N-SH2 domain L43F = target: SHP2 N-SH2 domain L43F
SHP2 N-SH2 domain T42A = target: SHP2 N-SH2 domain T42A
SHP2 N-SH2 domain T52S = target: SHP2 N-SH2 domain T52S
[2] = target: SHP2 N-SH2 domain wild-type

Measured: enrichment score
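Also: displayed peptides selected on beads carrying the immobilized SH2 domain, with library peptides lacking any tyrosine serving as negative controls.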

REENGYNTYAS [FGF10_Y161_I156R]
inactive: SHP2 C-SH2 domain E139D 0.529 | [1] 0.43 | SHP2 N-SH2 domain L43F 0.598 | SHP2 N-SH2 domain T42A 0.45 | SHP2 N-SH2 domain T52S 0.568 | [2] 0.615

REENGYNTFAS [FGF10_Y161_I156R_YF]
inactive: SHP2 C-SH2 domain E139D 0.613 | [1] 0.457 | SHP2 N-SH2 domain L43F 0.529 | SHP2 N-SH2 domain T42A 0.449 | SHP2 N-SH2 domain T52S 0.622 | [2] 0.576

YASALYRQRRS [FGF11_Y162]
inactive: SHP2 C-SH2 domain E139D 0.26 | [1] 0.2 | SHP2 N-SH2 domain L43F 0.228 | SHP2 N-SH2 domain T42A 0.238 | SHP2 N-SH2 domain T52S 0.223 | [2] 0.269

YASALYGQRRS [FGF11_Y162_R163G]
inactive: SHP2 C-SH2 domain E139D 0.248 | [1] 0.217 | SHP2 N-SH2 domain L43F 0.278 | SHP2 N-SH2 domain T42A 0.248 | SHP2 N-SH2 domain T52S 0.261 | [2] 0.293

IALSKYGRVKR [FGF6_Y186]
inactive: SHP2 C-SH2 domain E139D 0.371 | [1] 0.287 | SHP2 N-SH2 domain L43F 0.283 | SHP2 N-SH2 domain T42A 0.379 | SHP2 N-SH2 domain T52S 0.306 | [2] 0.328

RHTRSYDYTEG [FGF7_Y56_M59T]
inactive: SHP2 C-SH2 domain E139D 0.671 | [1] 0.75 | SHP2 N-SH2 domain L43F 0.466 | SHP2 N-SH2 domain T42A 0.604 | SHP2 N-SH2 domain T52S 0.673 | [2] 0.628

RHTRSYDFMEG [FGF7_Y56_YF]
inactive: SHP2 C-SH2 domain E139D 1.15 | [1] 1.05 | SHP2 N-SH2 domain L43F 1.03 | SHP2 N-SH2 domain T42A 0.967 | SHP2 N-SH2 domain T52S 1.12 | [2] 0.859

TRSYDYMEGED [FGF7_Y58_G62E]
inactive: SHP2 C-SH2 domain E139D 0.525 | [1] 0.613 | SHP2 N-SH2 domain L43F 0.705 | SHP2 N-SH2 domain T42A 0.631 | SHP2 N-SH2 domain T52S 0.513 | [2] 0.628

TRSFDYMEGED [FGF7_Y58_G62E_YF]
inactive: SHP2 C-SH2 domain E139D 0.693 | [1] 0.655 | SHP2 N-SH2 domain L43F 0.514 | SHP2 N-SH2 domain T42A 0.422 | SHP2 N-SH2 domain T52S 0.956 | [2] 0.861

TRSFDYTEGGD [FGF7_Y58_M59T_YF]
inactive: SHP2 C-SH2 domain E139D 0.83 | [1] 0.682 | SHP2 N-SH2 domain L43F 0.744 | SHP2 N-SH2 domain T42A 0.392 | SHP2 N-SH2 domain T52S 0.707 | [2] 0.629

GYKVRYATGSI [FGFR1_Y210_W213G]
inactive: SHP2 C-SH2 domain E139D 1.38 | [1] 0.974 | SHP2 N-SH2 domain L43F 1.07 | SHP2 N-SH2 domain T42A 1.02 | SHP2 N-SH2 domain T52S 1.19 | [2] 1.11

GFKVRYATWSI [FGFR1_Y210_YF]
inactive: SHP2 C-SH2 domain E139D 2.8 | [1] 2.65 | SHP2 N-SH2 domain L43F 2.61 | SHP2 N-SH2 domain T42A 2.57 | SHP2 N-SH2 domain T52S 2.52 | [2] 2.67

IHHIDYYKKTT [FGFR1_Y653]
inactive: SHP2 C-SH2 domain E139D 1.01 | [1] 0.724 | SHP2 N-SH2 domain L43F 1.18 | SHP2 N-SH2 domain T42A 0.625 | SHP2 N-SH2 domain T52S 0.992 | [2] 0.713

IHHIDYFKKTT [FGFR1_Y653_YF]
inactive: SHP2 C-SH2 domain E139D 1.21 | [1] 1.08 | SHP2 N-SH2 domain L43F 1.33 | SHP2 N-SH2 domain T42A 1.61 | SHP2 N-SH2 domain T52S 1.3 | [2] 1.32

HHIDYYKKTTN [FGFR1_Y654]
inactive: SHP2 C-SH2 domain E139D 0.674 | [1] 0.519 | SHP2 N-SH2 domain L43F 0.39 | SHP2 N-SH2 domain T42A 0.478 | SHP2 N-SH2 domain T52S 0.785 | [2] 0.895

HHIDYYKETTN [FGFR1_Y654_K656E]
inactive: SHP2 C-SH2 domain E139D 1.37 | [1] 1.18 | SHP2 N-SH2 domain L43F 1.13 | SHP2 N-SH2 domain T42A 1.2 | SHP2 N-SH2 domain T52S 1.52 | [2] 1.14

HHIDFYKETTN [FGFR1_Y654_K656E_YF]
inactive: SHP2 C-SH2 domain E139D 1.4 | [1] 1.21 | SHP2 N-SH2 domain L43F 1.22 | SHP2 N-SH2 domain T42A 1.05 | SHP2 N-SH2 domain T52S 1.47 | [2] 1.41

FTNELYMMMRD [FGFR1_Y730_C725Y_YF]
inactive: SHP2 C-SH2 domain E139D 1.04 | [1] 0.877 | SHP2 N-SH2 domain L43F 1.04 | SHP2 N-SH2 domain T42A 1.05 | SHP2 N-SH2 domain T52S 1.06 | [2] 0.985

TSNQEYLDVSM [FGFR1_Y766_L769V]
inactive: SHP2 C-SH2 domain E139D 0.674 | [1] 0.717 | SHP2 N-SH2 domain L43F 0.824 | SHP2 N-SH2 domain T42A 0.667 | SHP2 N-SH2 domain T52S 0.665 | [2] 0.8

MSLDQYSPSFP [FGFR1_Y776_P772S]
inactive: SHP2 C-SH2 domain E139D 0.793 | [1] 0.858 | SHP2 N-SH2 domain L43F 0.633 | SHP2 N-SH2 domain T42A 0.628 | SHP2 N-SH2 domain T52S 0.742 | [2] 0.685

LVSCTYQLARR [FGFR2_Y608_G613R]
inactive: SHP2 C-SH2 domain E139D 0.289 | [1] 0.335 | SHP2 N-SH2 domain L43F 0.266 | SHP2 N-SH2 domain T42A 0.152 | SHP2 N-SH2 domain T52S 0.316 | [2] 0.205

ARGMEYLASQK [FGFR2_Y616]
inactive: SHP2 C-SH2 domain E139D 0.79 | [1] 0.682 | SHP2 N-SH2 domain L43F 0.857 | SHP2 N-SH2 domain T42A 0.741 | SHP2 N-SH2 domain T52S 0.531 | [2] 0.786

NNIDYYKKTTN [FGFR2_Y657]
inactive: SHP2 C-SH2 domain E139D 0.46 | [1] 0.545 | SHP2 N-SH2 domain L43F 0.511 | SHP2 N-SH2 domain T42A 0.298 | SHP2 N-SH2 domain T52S 0.658 | [2] 0.349

NNIDFYKNTTN [FGFR2_Y657_K659N_YF]
inactive: SHP2 C-SH2 domain E139D 0.762 | [1] 0.641 | SHP2 N-SH2 domain L43F 0.544 | SHP2 N-SH2 domain T42A 0.494 | SHP2 N-SH2 domain T52S 0.719 | [2] 0.726

VHNLNYYKKTT [FGFR3_Y647_D646N]
inactive: SHP2 C-SH2 domain E139D 0.369 | [1] 0.574 | SHP2 N-SH2 domain L43F 0.557 | SHP2 N-SH2 domain T42A 0.693 | SHP2 N-SH2 domain T52S 0.683 | [2] 0.596

VHNLNYFKKTT [FGFR3_Y647_D646N_YF]
inactive: SHP2 C-SH2 domain E139D 0.509 | [1] 0.481 | SHP2 N-SH2 domain L43F 0.519 | SHP2 N-SH2 domain T42A 0.55 | SHP2 N-SH2 domain T52S 0.454 | [2] 0.335

VHNLDYFKETT [FGFR3_Y647_K650E_YF]
inactive: SHP2 C-SH2 domain E139D 0.703 | [1] 0.943 | SHP2 N-SH2 domain L43F 0.781 | SHP2 N-SH2 domain T42A 0.608 | SHP2 N-SH2 domain T52S 0.629 | [2] 0.776

VHNLDYFKMTT [FGFR3_Y647_K650M_YF]
inactive: SHP2 C-SH2 domain E139D 1.2 | [1] 1.07 | SHP2 N-SH2 domain L43F 0.896 | SHP2 N-SH2 domain T42A 1.2 | SHP2 N-SH2 domain T52S 1.09 | [2] 0.835

VHNLDYYKQTT [FGFR3_Y647_K650Q]
inactive: SHP2 C-SH2 domain E139D 1.1 | [1] 1.26 | SHP2 N-SH2 domain L43F 1.25 | SHP2 N-SH2 domain T42A 1 | SHP2 N-SH2 domain T52S 0.837 | [2] 1.32

VHNLDYFKQTT [FGFR3_Y647_K650Q_YF]
inactive: SHP2 C-SH2 domain E139D 0.897 | [1] 0.675 | SHP2 N-SH2 domain L43F 0.811 | SHP2 N-SH2 domain T42A 0.612 | SHP2 N-SH2 domain T52S 0.882 | [2] 1.11

HNLDYYKKTTN [FGFR3_Y648]
inactive: SHP2 C-SH2 domain E139D 0.818 | [1] 0.633 | SHP2 N-SH2 domain L43F 0.613 | SHP2 N-SH2 domain T42A 0.847 | SHP2 N-SH2 domain T52S 0.54 | [2] 0.904

HNLNYYKKTTN [FGFR3_Y648_D646N]
inactive: SHP2 C-SH2 domain E139D 0.291 | [1] 0.107 | SHP2 N-SH2 domain L43F 0.113 | SHP2 N-SH2 domain T42A 0.269 | SHP2 N-SH2 domain T52S 0.261 | [2] 0.438

HNLDFYKETTN [FGFR3_Y648_K650E_YF]
inactive: SHP2 C-SH2 domain E139D 1.12 | [1] 1.07 | SHP2 N-SH2 domain L43F 1.49 | SHP2 N-SH2 domain T42A 0.988 | SHP2 N-SH2 domain T52S 0.831 | [2] 1.05

HNLDFYKMTTN [FGFR3_Y648_K650M_YF]
inactive: SHP2 C-SH2 domain E139D 1.27 | [1] 1.15 | SHP2 N-SH2 domain L43F 1.09 | SHP2 N-SH2 domain T42A 0.781 | SHP2 N-SH2 domain T52S 1.01 | [2] 0.903

DSSIRYLQEIY [FGG_Y135]
inactive: SHP2 C-SH2 domain E139D 0.792 | [1] 0.656 | SHP2 N-SH2 domain L43F 0.838 | SHP2 N-SH2 domain T42A 0.591 | SHP2 N-SH2 domain T52S 0.82 | [2] 0.772

DSSIRYLQEIH [FGG_Y135_Y140H]
inactive: SHP2 C-SH2 domain E139D 0.878 | [1] 0.646 | SHP2 N-SH2 domain L43F 0.736 | SHP2 N-SH2 domain T42A 0.592 | SHP2 N-SH2 domain T52S 0.756 | [2] 0.838

DSSIRYLQEIF [FGG_Y135_YF]
inactive: SHP2 C-SH2 domain E139D 0.69 | [1] 0.687 | SHP2 N-SH2 domain L43F 0.746 | SHP2 N-SH2 domain T42A 0.768 | SHP2 N-SH2 domain T52S 0.991 | [2] 0.602
